# Results reported in the supplement of paper PMC8728848.
# The other results are listed elsewhere or left out.
# B1: CVN-E41G (protein)
# chain: MHHHHHHENLYFQSGNFSQACYNSAIQGSVLTSTCIRTNGGYNTSSIDLNSVIANVDGSLKWQGSNFIETCRNTQLAGSSELAAECKTRAQQFVSTKINLDDHIAAIDGTLKYE
# How the values were obtained:
# Assay in all cases: glycan array binding signal (z-score within array); higher = stronger binding
# Conditions in all cases: glycan notation: IUPAC condensed, linker removed; mutation: E41A
# Neu5Ac(a2-8)Neu5Ac = molecular target: Neu5Ac(a2-8)Neu5Ac
# Procedure, shortened: (§1)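 Negative Z-scores can be read as non-binding. The Z-score is calculated within each array and then averaged across arrays of one protein sequence at different concentrations or buffers and across linkers. Arrays, 3228 in all, were curated from the Consortium for Functional Glycomics database and kept only where the protein sequence was available.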
# [1] = molecular target: Neu5Ac(a2-8)Neu5Ac(a2-3)Gal(b1-3)GalNAc(b1-4)[Neu5Ac(a2-3)]Gal(b1-4)Glc
# Procedure, shortened: as §1
# [2] = molecular target: Neu5Ac(a2-8)Neu5Ac(a2-3)Gal(b1-3)GalNAc(b1-4)[Neu5Ac(a2-8)Neu5Ac(a2-3)]Gal(b1-4)Glc
# Procedure, shortened: as §1
# [3] = molecular target: Neu5Ac(a2-8)Neu5Ac(a2-3)Gal(b1-4)Glc
# Procedure, shortened: as §1
# [4] = molecular target: Neu5Ac(a2-8)Neu5Ac(a2-3)Gal(b1-4)GlcNAc
# Procedure, shortened: as §1
# [5] = molecular target: Neu5Ac(a2-8)Neu5Ac(a2-3)[Gal(b1-3)GalNAc(b1-4)]Gal(b1-4)Glc
# Procedure, shortened: as §1
# [6] = molecular target: Neu5Ac(a2-8)Neu5Ac(a2-3)[GalNAc(b1-4)]Gal(b1-4)Glc
# Procedure, shortened: as §1
# [7] = molecular target: Neu5Ac(a2-8)Neu5Ac(a2-8)Neu5Ac
# Procedure, shortened: as §1
# [8] = molecular target: Neu5Ac(a2-8)Neu5Ac(a2-8)Neu5Ac(a2-3)Gal(b1-4)Glc
# Procedure, shortened: as §1
# [9] = molecular target: Neu5Ac(a2-8)Neu5Ac(a2-8)Neu5Ac(a2-3)[Gal(b1-3)GalNAc(b1-4)]Gal(b1-4)Glc
# Procedure, shortened: as §1
# [10] = molecular target: Neu5Ac(a2-8)Neu5Ac(a2-8)Neu5Ac(a2-3)[GalNAc(b1-4)]Gal(b1-4)Glc
# Procedure, shortened: as §1
# [11] = molecular target: Neu5Ac(a2-8)Neu5Ac(a2-8)Neu5Ac(a2-8)Neu5Ac(a2-3)[GalNAc(b1-4)]Gal(b1-4)Glc
# Procedure, shortened: as §1
# [12] = molecular target: Neu5Ac(a2-8)Neu5Gc(a2-3)Gal(b1-4)GlcNAc
# Procedure, shortened: as §1
# [13] = molecular target: Neu5Ac(b2-6)Gal(b1-4)GlcNAc
# Procedure, shortened: as §1
# Neu5Ac(b2-6)GalNAc = molecular target: Neu5Ac(b2-6)GalNAc
# Procedure, shortened: as §1
# [14] = molecular target: Neu5Ac9Ac(a2-3)Gal(b1-3)GlcNAc
# Procedure, shortened: as §1
# [15] = molecular target: Neu5Ac9Ac(a2-3)Gal(b1-4)GlcNAc
# Procedure, shortened: as §1
# [16] = molecular target: Neu5Ac9Ac(a2-6)Gal(b1-4)GlcNAc
# Procedure, shortened: as §1
# [17] = molecular target: Neu5Gc(a2-3)Gal(b1-3)GlcNAc
# Procedure, shortened: as §1
# [18] = molecular target: Neu5Gc(a2-3)Gal(b1-3)[Fuc(a1-4)]GlcNAc
# Procedure, shortened: as §1
# Neu5Gc(a2-3)Gal(b1-4)Glc = molecular target: Neu5Gc(a2-3)Gal(b1-4)Glc
# Procedure, shortened: as §1
# [19] = molecular target: Neu5Gc(a2-3)Gal(b1-4)GlcNAc
# Procedure, shortened: as §1
# [20] = molecular target: Neu5Gc(a2-3)Gal(b1-4)GlcNAc(b1-3)Gal(b1-4)GlcNAc(b1-2)Man(a1-3)[Neu5Gc(a2-3)Gal(b1-4)GlcNAc(b1-3)Gal(b1-4)GlcNAc(b1-2)Man(a1-6)]Man(b1-4)GlcNAc(b1-4)GlcNAc
# Procedure, shortened: as §1
# [21] = molecular target: Neu5Gc(a2-3)Gal(b1-4)[Fuc(a1-3)]GlcNAc
# Procedure, shortened: as §1
# [22] = molecular target: Neu5Gc(a2-6)Gal(b1-4)GlcNAc
# Procedure, shortened: as §1
# Neu5Gc(a2-6)GalNAc = molecular target: Neu5Gc(a2-6)GalNAc
# Procedure, shortened: as §1
# [23] = molecular target: Neu5Gc(a2-8)Neu5Ac(a2-3)Gal(b1-4)GlcNAc
# Procedure, shortened: as §1
# [24] = molecular target: Neu5Gc(a2-8)Neu5Gc(a2-3)Gal(b1-4)GlcNAc
# Procedure, shortened: as §1
# [25] = molecular target: Neu5Gc(a2-8)Neu5Gc(a2-3)Gal(b1-4)GlcNAc(b1-3)Gal(b1-4)GlcNAc
# Procedure, shortened: as §1
# [26] = molecular target: Neu5Gc(a2-8)Neu5Gc(a2-6)Gal(b1-4)GlcNAc
# Procedure, shortened: as §1
# [27] = molecular target: Neu5Gc(b2-6)Gal(b1-4)GlcNAc
# Procedure, shortened: as §1
binder,measurement,setting,value
B1,glycan array binding signal (z-score),Neu5Ac(a2-8)Neu5Ac,-0.195
same,glycan array binding signal (z-score),[1],-0.161
same,glycan array binding signal (z-score),[2],0.292
same,glycan array binding signal (z-score),[3],-0.193
same,glycan array binding signal (z-score),[4],-0.207
same,glycan array binding signal (z-score),[5],-0.211
same,glycan array binding signal (z-score),[6],-0.23
same,glycan array binding signal (z-score),[7],-0.229
same,glycan array binding signal (z-score),[8],-0.226
same,glycan array binding signal (z-score),[9],-0.232
same,glycan array binding signal (z-score),[10],-0.211
same,glycan array binding signal (z-score),[11],-0.209
same,glycan array binding signal (z-score),[12],-0.228
same,glycan array binding signal (z-score),[13],-0.245
same,glycan array binding signal (z-score),Neu5Ac(b2-6)GalNAc,-0.24
same,glycan array binding signal (z-score),[14],-0.163
same,glycan array binding signal (z-score),[15],-0.224
same,glycan array binding signal (z-score),[16],-0.236
same,glycan array binding signal (z-score),[17],-0.221
same,glycan array binding signal (z-score),[18],-0.199
same,glycan array binding signal (z-score),Neu5Gc(a2-3)Gal(b1-4)Glc,-0.01
same,glycan array binding signal (z-score),[19],-0.223
same,glycan array binding signal (z-score),[20],-0.233
same,glycan array binding signal (z-score),[21],-0.15
same,glycan array binding signal (z-score),[22],0.013
same,glycan array binding signal (z-score),Neu5Gc(a2-6)GalNAc,-0.18
same,glycan array binding signal (z-score),[23],-0.216
same,glycan array binding signal (z-score),[24],-0.226
same,glycan array binding signal (z-score),[25],-0.215
same,glycan array binding signal (z-score),[26],-0.207
same,glycan array binding signal (z-score),[27],-0.228
